In the supplement of paper PMC11417369:
± gives the standard deviation of the averaged measurements. The list shows a part of the results.

Tested on: PfAP2-I AP2 domain 3 (GST-tagged)
Assay: gcPBM binding intensity (ln(normalized median fluorescence intensity)); higher = stronger DNA binding
In short: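 An Agilent 4 × 180k array carrying primer-extended double-stranded 36-bp intergenic genomic probes and negative controls received GST-tagged P. falciparum DNA-binding domains expressed in E. coli, about 25 μg on average, for 1 h. The binding buffer contained 1× PBS, 1% milk, 0.2 mg/ml BSA, 0.5% salmon testes DNA and 0.03% Triton X-100. Binding intensity is the top Masliner-normalised natural-log median intensity across replicate spots of either probe orientation, read after Alexa488 anti-GST antibody staining and a 488 nm scan.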

Row | Sequence | gcPBM binding intensity (ln)
1 | ATTTTATGTTGAAAGTGTACGTATTAATATGTAGAA [XGTACX_site245] | 8.33 ± 0.35
2 | TATTTTATTATACCAAGTACAAAATTTAAATATGAA [XGTACX_site5478] | 7.67 ± 0.19
3 | GGATGGAGTAGTTAAGCATAATAAATAAAATTATGT [CACACA_negctrl_site578] | 7.81 ± 0.45
4 | GTTTTAAACAAAAATTGTACAATATAATCTTCCTAT [XGTACX_site2851] | 7.75 ± 0.5
5 | ATATATATATAATTTTGTACATAATAGCAATTCTAA [XGTACX_site653] | 9.06 ± 0.085
6 | CAAAACCTTTTATGTACACACATATACATCCCACTT [CACACA_site5716] | 8.17 ± 0.37
7 | AATAGCTAGCTGTGCACACAAACATATTTTCCAAAT [CACACA_site880] | 9.55 ± 0.16
8 | AACAACTATTAATTTACACACATGTATATATTTTAC [CACACA_site3116] | 8.01 ± 0.71
9 | AAAAAAATTGGGAAAAGTACTTGCAGCTAGCTAAAA [XGTACX_site5178] | 7.82 ± 0.83
10 | TTAAAAAAAATTTCAAGTACAAAGTAATATATATAT [XGTACX_site5718] | 8.96 ± 0.15
11 | AAACAAATATAATATTGTACATATATATATATATAT [XGTACX_site3105] | 9.46 ± 0.76
12 | GGATTGATAAGTGGTACACACATATATATTATATAT [CACACA_site2866] | 7.99 ± 0.2
13 | AAATATAAAAATAGCACACATATATACCTATATATA [CACACA_site4204] | 7.97 ± 0.44
14 | GCATTGGGAATATATAGTACATATATATATATATAA [XGTACX_site2967] | 7.81 ± 0.48
15 | CAGACGCACGTATTTGCACACATTGCCACGTAATTA [CACACA_site3349] | 9.79 ± 0.13
16 | TTTTTCTTTTTCTTTTTTTCTTTTTTTTTTTTTTTC [GTGCAC_negctrl_site727] | 7.58 ± 0.83
17 | AACCATTCAACTGATGCATGCATTTAACATATAAAT [TGCATGCA_site961] | 8.07 ± 0.64
18 | CAAACAATTAAACAAACACACATATACAAGTATTTA [CACACA_site5177] | 7.46 ± 0.37
19 | TATATTTACTTATGAAGTACATATATATATATATAT [XGTACX_site5069] | 9.36 ± 1
20 | TGTTCTTTTTATACTACACACTGATAAAAAAACAAA [CACACA_site3001] | 8.2 ± 0.42
21 | TTTAAGTTTTTACTTTGTACGTATTATAATAAAATC [XGTACX_site5683] | 7.94 ± 0.41
22 | ATAATAAAAAATACAAGTACACATATTATATATATA [XGTACX_site5355] | 8.68 ± 0.35
23 | TTTAAAACCTTACATACACACAAATATATATATATA [CACACA_site677] | 9.32 ± 0.24

Row | Sequence | gcPBM binding intensity (ln)
24 | AATGCTATCATTAATGCACACATTTAAAATTAATAT [CACACA_site3548] | 11 ± 0.55
25 | AACACAAGAACAGAACGTACACACACATATATATAT [XGTACX_site7347] | 9.11 ± 0.11
26 | AGGTGTGAGACCACGTTCACAAAATAAAATACATAA [CACACA_negctrl_site326] | 7.76 ± 0.64
27 | ACATCAAGCAGACACACACACACACCCACCCACCCA [CACACA_site8012] | 8.68 ± 0.6
28 | CAGGCACTAATAAACACACACATATAAATATAAATA [CACACA_site6320] | 7.88 ± 0.4
29 | TTTTTTTTTTTTTTTTGTACTCATACATACTATCAT [XGTACX_site3650] | 8.24 ± 0.79
30 | AATTTCTACTATTGTATGCACTTTCATACATACATA [GTGCAC_site9924] | 9.525 ± 0.078
31 | TTTATTTTCATATGAACACACATATTTATATTATAA [CACACA_site7165] | 7.92 ± 0.5
32 | TACAATCTAAGGAGCACACAAAAATGGATAAATATA [CACACA_site933] | 7.88 ± 0.54
33 | TAATAAAAGAAAAAAAGTACAGACATATTGAATTTT [XGTACX_site5044] | 7.88 ± 0.64
34 | ATACATACATATATATGTACTTATATTTTACACATT [XGTACX_site1688] | 8.09 ± 0.52
35 | GCTTGAATAATCAATAGTACACACATATAAATATAT [XGTACX_site5964] | 8.12 ± 0.36
36 | TAATATTTATAATAGTGTACACAATTATAAACTGAA [XGTACX_site8426] | 8.26 ± 0.057
37 | ACCTTATTTATTATTGCATGTGACCATCAGATGGTA [TGCATGCA_site288] | 8.61 ± 0.73
38 | TTTATTTTTTACCAAGTGCAATATATTATAATAATA | 10.5 ± 0.6
39 | TATTTATAAGTTTACGCATGCATATAATTATTAATA [TGCATGCA_site311] | 7.63 ± 0.39
40 | TTTTTTTTTTTTTTTGTGCACAATTATTTCAATTTT [GTGCAC_site9884] | 10.9 ± 0.79
41 | TTTTAAATAATTCGTAATTATAATTATGGAAAAAAG [CACACA_negctrl_site152] | 7.72 ± 0.49
42 | TGTATGTTATGTATATGTACATATCTTTGTATTTAT [XGTACX_site6920] | 7.73 ± 0.41
43 | ATTTTTTTTTTTAATACACACAATTTTGATGAAGCA [CACACA_site3157] | 8 ± 0.44
44 | ACATTACCATATAAAACACACAAACATACATACATA [CACACA_site7709] | 7.95 ± 0.45
45 | TATAATATTTGGTGCACACAAATTAACAACTGTTTA [CACACA_site3742] | 11.1 ± 0.39
